According to PubChem BioAssay AID743279 (National Center for Advancing Translational Sciences (NCATS), 2014):
Hit rate of the full screen: of about 360,000 compounds, about 17,000 (4.7%) were called active. Inconclusive results, whose numbers are uncertain, are shown with a selection of clear calls. No stated cut-off is given here; in the data, active means activity change below about -50%; inconclusive means mostly about -30% to -49%; inactive means weaker than that.

Test: qHTS for Inhibitors of Inflammasome Signaling: IL-1-beta AlphaLISA Primary Screen
Conditions: THP-1 LPS/ATP IL-1B secretion, 16 h; at 57.5 µM, hits give low values
Summary of the method: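 THP-1 cells pretreated 1 hr with compounds (up to 57.5 uM final), then stimulated with LPS (250 ng/mL final) plus ATP (1.25 mM final); secreted IL-1B measured by AlphaLISA after 16 hr, decreased signal indicating inhibition.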
On the % scale 0 is the no-effect control and ±100 the full control effect.

SMILES	activity change
CCCCNC(=O)c1cc2cccc([N+](=O)[O-])c2[nH]1	inconclusive: -34.9%
Cc1cccc(N2CCN(C(=O)Cn3sc4nc(C)cc(C)c4c3=O)CC2C)c1 (stereo not drawn)	inconclusive: -32.6%
CN1CCN(c2ccc(CNC(=O)C3Cc4c(-c5cccc(F)c5)ccnc4O3)cc2)CC1 (stereo not drawn)	inconclusive: -38.7%
CC(C)(C)OC(=O)N1CCN(C(=O)c2[nH]cnc2C(=O)N[C@@H](Cc2ccccc2)C(=O)OCc2ccccc2)CC1	active: -64.5%
COC(=O)c1cc(-c2cccc(OC)c2)c2c(=O)[nH]c(=O)n(C)c2n1	inactive: 27.1%
Cc1cccc2nc(-c3cccc(NC(=O)Cc4ccccc4)c3)cn12	inconclusive: -31.6%
COc1cc(-c2nnc(Sc3ccc(C(F)(F)F)cc3[N+](=O)[O-])o2)cc(OC)c1OC	inconclusive: -41%
COc1ccc2nc(N(Cc3ccccc3)C(=O)CCNC(C)=O)sc2c1	inconclusive: -43.2%
NS(=O)(=O)c1ccc(Nc2nc(-c3ccc(F)cc3)cs2)cc1	active: -87.6%
CC(=O)N1c2ccc(S(=O)(=O)N3CCC(C(=O)N4CCC(C)CC4)CC3)cc2CC1C (stereo not drawn)	inconclusive: -36.7%
Cc1cccc(-c2nnc(-c3cccc(NC(=O)Cc4cccs4)c3)o2)c1	inconclusive: -48.6%
O=[N+]([O-])c1cccc(C2CC(c3ccccc3)=NN2c2ccccc2)c1 (stereo not drawn)	inconclusive: -38.2%
CCOC(=O)C(CC)(CC)C(=O)/C=C/c1ccc(OC)cc1	inactive: 0.901%
C=CCn1c(C(CCCC)CC(C)O)n[nH]c1=S (stereo not drawn)	inactive: -10.3%
CCN(CC)C(=O)COc1ccc2c3c(c(=O)oc2c1C)CCCC3	inconclusive: -49.4%
Brc1cccc(OCCCCN2CCCCC2)c1	inconclusive: -43.2%
CCOC(=O)c1c(C)nc2c(c1-c1cc(OC)c(OC)c(OC)c1)C(=O)c1ccccc1-2	inconclusive: -40.8%
COc1nc(=O)n(C2OC(CO)C(O)C2O)cc1C (stereo not drawn)	inactive: 4.12%
CC(C)COc1cccc(-c2cc(C(=O)N/N=C/c3ccncc3)c3ccccc3n2)c1	inactive
COc1ccc(-c2nc(SC(C)C(=O)NCC3CCCO3)n[nH]2)cc1 (stereo not drawn)	inactive: 37.9%
Cc1nn(C(C)(C)C)c(C)c1/C=N/OC(=O)Nc1ccc(Cl)c(Cl)c1	inactive: 15.5%

SMILES	activity change
CC(C)CC(=O)n1sc(NC(=O)c2ccccc2)nc1=O	inconclusive: -47.6%
CCn1nc(C(=O)NNC(=O)c2ccccc2OCc2c(C)noc2C)c2ccccc2c1=O	inconclusive: -48%
CCOc1ccc(-c2nc(C#N)c(N3CCN(C)CC3)o2)cc1	inconclusive: -38.1%
CCn1ncc(/C=C/C(=O)Nc2c(C)nn(Cc3ccc(Cl)cc3Cl)c2C)c1C	inconclusive: -40.5%
Cc1ccc(C(O)(CNCc2ccccc2)c2ccccc2)cc1 (stereo not drawn)	inconclusive: -46.8%
CCCNC(=O)Nc1cc(OC)c(OC)cc1Cc1nccc2cc(OC)c(OC)cc12	inconclusive: -34.4%
CN1CCN(CCC=C2c3ccccc3Sc3ccc(S(=O)(=O)N(C)C)cc32)CC1	inconclusive: -39.6%
Cc1ccc(C(=O)NC(C(=O)OCc2cn3cc(Cl)ccc3n2)C(C)C)cc1 (stereo not drawn)	inactive: 26.6%
CC(C(=O)N1c2ccccc2Sc2ccccc21)n1nnc(-c2cccs2)n1 (stereo not drawn)	inactive: 7.59%
O=C(NCC(c1ccco1)N1CCCCC1)c1ccc(S(=O)(=O)Nc2ccccc2Cl)cc1 (stereo not drawn)	inactive: 15.1%
CC(C)(C)c1ccc(OCCOc2ccc(C(C)(C)C)cc2NC=O)c(NC=O)c1	inconclusive: -47.6%
CCOC(=O)C1CCCN(C(=O)c2cc(C)n(C(C)(C)C)n2)CC1 (stereo not drawn)	inactive: 15.3%
CCc1ccc(N(CC(=O)NCC2CCCO2)C(=O)CCC(=O)Nc2nccs2)cc1 (stereo not drawn)	inactive: -1.43%
COc1ccc(NC(=O)CN2C(=O)COc3ccc(S(=O)(=O)N4CCOCC4)cc32)cc1	inconclusive: -34.4%
O=C(Nc1ccc(F)cc1)C(c1cccc(F)c1)N1CCN(c2cccc(C(F)(F)F)n2)CC1 (stereo not drawn)	inconclusive: -46.9%
Cc1cc(C)c2cc(CN(CC3CCCO3)C(=S)NCc3ccco3)c(=O)[nH]c2c1 (stereo not drawn)	inconclusive: -33.5%
COc1cccc(C(=O)Nc2ccc3c(c2)OC[C@H](C)N(C(=O)C2CCCC2)C[C@@H](C)[C@@H](OC)CN(C)C3=O)c1	inactive: -12.4%
N#Cc1c(C(F)(F)F)cc(=O)n2c1[nH]c1ccccc12	active: -73.6%
CCC(C)NC(=O)CCn1c(-c2ccc(F)cc2)cc(C(C)=O)c1C (stereo not drawn)	inactive: 32.2%
CC(/C=C/c1ccccc1)=N/NC(=O)CNC(=O)c1ccc2c(c1)OCO2	inactive: -15.4%
CCN(CCNC(=O)C1=C(C)C(=O)OC12CCC(C)CC2)c1ccccc1 (stereo not drawn)	inconclusive: -31.7%

SMILES	activity change
COc1ccc(N2CC(NS(=O)(=O)c3ccc4ccccc4c3)CC2=O)cc1 (stereo not drawn)	inconclusive: -34.2%
COc1ccccc1CN1CCC(CNS(=O)(=O)c2cc(-c3cc(C)no3)ccc2OC)CC1	inconclusive: -36.7%
Cc1ccc2c(c1)C1CN(C)CCC1N2S(=O)(=O)c1ccccc1F (stereo not drawn)	active: -50.7%
CCCCNC(=O)/C=C/c1ccc(OC)c(Br)c1	inconclusive: -30.6%
Cc1ccc(C(C#N)c2ccc(Cl)nn2)cc1 (stereo not drawn)	inconclusive: -32.1%
CC(C)Oc1ccc(C(=O)/C=C2/C(=O)Nc3ccccc32)cc1	active: -100%
Cc1nc2ccccc2n1-c1ccccc1	inactive: 13.9%
COc1ccc(Cl)cc1N1C(=O)CC(Sc2ccccc2N)C1=O (stereo not drawn)	inconclusive: -32.9%
COc1ccc(Cl)cc1N(CC(=O)NCCSc1ccccn1)S(=O)(=O)c1ccccc1	inactive: -4.36%
N#Cc1c(N2CCCC2)nc(N)c2c(N)nc(N3CCCC3)cc12	inconclusive: -42%
Cc1ccc(C(=O)N2CCC3(CC2)Oc2ccc(F)cc2C(=O)C32CC(c3ccc(Cl)cc3)=NO2)s1 (stereo not drawn)	inconclusive: -31.4%
Cc1ccc(C2c3[nH]c4ccccc4c3C[C@H]3C(=O)N(c4ccccc4C(=O)N4CCC[C@H]4C(=O)O)C(=O)N23)cc1 (stereo partly drawn)	inactive: 0%
Cc1ccc(NC(=O)CN2CCc3cc4c(cc3C2C)OCCCO4)cc1 (stereo not drawn)	inconclusive: -33.9%
CCCCOc1ccc(C(=O)N/C(=C/c2cccc([N+](=O)[O-])c2)C(=O)O)cc1	active: -61.8%
CCOc1ccc(/C=N/NC(=O)c2c(C)n(C)c3ccc(OC)cc23)cc1	inactive: 26.7%
Cc1noc(C)c1NC(=O)Nc1ccc2c(c1)C(=O)N([C@@H](C)CO)C[C@@H](C)[C@@H](CN(C)Cc1ccc3c(c1)OCO3)O2	inactive: 16.2%
O=C(C1CCCC1)N1CCC(CO)(Cc2ccccc2Cl)CC1	inconclusive: -36.9%
Cc1ccc(N(CC(O)CN2C(=O)NC(C)(C)C2=O)S(=O)(=O)c2ccc([N+](=O)[O-])cc2)cc1 (stereo not drawn)	inactive: -3.54%
NC(=Nc1ccccc1)NC(=O)c1nc(Cl)c(N)nc1N	inconclusive: -44.2%
COc1cc2c(cc1OC)/C(=C/C(=O)c1ccc(C)cc1)NCC2	inconclusive: -30.6%
CCCc1cc(=O)[nH]c(SCC(=O)Nc2cc(S(=O)(=O)N3CCCCC3)ccc2C)n1	inactive: 0%

SMILES	activity change
CCN(CC)S(=O)(=O)c1cc(-c2nnc(-c3ccc(Br)cc3)o2)ccc1Br	inconclusive: -30.7%
O=C(CNC(=O)c1ccccc1Cl)N/N=C/c1ccc([N+](=O)[O-])s1	active: -55.6%
CC(C)(C)NS(=O)(=O)c1ccc(NC(=O)C(Sc2ccccc2)c2ccccc2)cc1 (stereo not drawn)	inconclusive: -32.3%
Cc1cc(NC(=O)C(C)SCC(=O)Nc2ccc(SC(F)F)cc2)no1 (stereo not drawn)	inactive: -6.72%
CSc1nc(NC(C)=O)nc(C)c1Cl	inactive: 12%
COc1cccc(NC(=O)N(C)C[C@@H]2OCc3cn(nn3)CCCC(=O)N([C@H](C)CO)C[C@H]2C)c1	inactive: 29%
Cc1ccc(S(=O)(=O)/N=C(\Sc2ccccc2)c2ccccc2)cc1	active: -50.4%
Cc1noc(/C=C/c2ccco2)c1S(=O)(=O)N1CCC(C(=O)N(C)Cc2ccccc2)CC1	inconclusive: -32.3%
Cc1cccc2c(N=Nc3ccc(S(=O)(=O)Nc4ccc(Cl)cc4)cc3[N+](=O)[O-])c(O)[nH]c12	inactive: 22.1%
COC(=O)[C@H](Cc1ccccc1)NC(=O)Cn1ccc(NC(=O)OCc2ccccc2)nc1=O	inconclusive: -31.3%
OCCC1CN(Cc2cnc(-c3ccc(Cl)cc3)nc2)CCN1C1CCCC1 (stereo not drawn)	active: -73%
C[C@@H]1CN([C@H](C)CO)C(=O)CCCn2nncc2CO[C@@H]1CN(C)S(=O)(=O)c1ccc(F)cc1	inactive: 12%
CC(C)(c1ccccc1)c1ccc(OCC(O)CNC2CCN(Cc3ccccc3)CC2)cc1 (stereo not drawn)	active: -102%
Cc1ccc2[nH]c(CNC(=O)c3ccccc3F)cc2c1	inactive: -13%
CCN(CC)CCNC(=O)CCn1c(=S)[nH]c2cc3c(cc2c1=O)OCO3	inconclusive: -33.5%
N=c1c(S(=O)(=O)c2ccc(Br)cc2)cc2c(=O)n3ccccc3nc2n1Cc1ccco1	inconclusive: -37.1%
COc1ccc(NC(=O)/C(Cl)=C(/Cl)S(=O)(=O)Cc2ccc(C)cc2)cn1	active: -119%
COc1cccc(NC(=O)CN(C)S(=O)(=O)/C=C/c2ccccc2)c1	inactive: -20.1%
O=C(Nc1ccc(Cl)cc1)N1CCCN(Cc2ccccc2F)C1	inconclusive: -44%
COc1cc(/C=C(/C(=O)c2cccs2)c2nc3ccccc3[nH]2)ccc1O	active: -106%
